# Assay results from the supplement of paper PMC8728848.
# The list shows a part of the results.
# B1: CLECb-Precomplexed (Mus musculus), P43025 (protein)
# chain: MAKNGLVLCILVVSLLLDQTDGYPSRMKARKHSKRRVKAKDDDLKSQVEKLWREVNALKEMQALQTVCLRGTKVHKKCYLASEGLKHYHEANEDCISKGGTLVVPRNSDEINALRDYGKRSLPGVNDFWLGINDMVTEGKFLDVHGFAVSFLNWDRAQPSGGKRENCVLFSQSAQGKWSDEACRSSKRYICEFIIPTRTRPLEQKLISEEDLAANDILDYKDDDDKV
# Assays:
# Experiment in all cases: glycan array binding signal (z-score within array); higher = stronger binding
# Conditions in all cases: glycan notation: IUPAC condensed, linker removed
# Gal6S(b1-4)Glc6S = target: Gal6S(b1-4)Glc6S
# In short: (§1)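 Glycan array data came from 3228 arrays in the Consortium for Functional Glycomics database, and only arrays with an available protein sequence were kept. Glycan names were put into IUPAC-condensed notation, and columns mapping to the same glycan were averaged. The binding signal is a within-array Z-score, averaged across arrays of one protein sequence run at different concentrations or buffers and across linkers. A negative Z-score can be read as non-binding.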
# Gal6S(b1-4)GlcNAc = target: Gal6S(b1-4)GlcNAc
# In short: as §1
# Gal6S(b1-4)GlcNAc6S = target: Gal6S(b1-4)GlcNAc6S
# In short: as §1
# GalNAc(a1-3)Gal = target: GalNAc(a1-3)Gal
# In short: as §1
# GalNAc(a1-3)GalNAc = target: GalNAc(a1-3)GalNAc
# In short: as §1
# [1] = target: GalNAc(a1-3)GalNAc(a1-3)Gal(a1-4)Gal(b1-4)GlcNAc
# In short: as §1
# [2] = target: GalNAc(a1-3)GalNAc(b1-3)Gal(a1-4)Gal(b1-4)Glc
# In short: as §1
# GalNAc(b1-3)Gal = target: GalNAc(b1-3)Gal
# In short: as §1
# [3] = target: GalNAc(b1-3)Gal(a1-4)Gal(b1-4)GlcNAc
# In short: as §1
# [4] = target: GalNAc(b1-3)Gal(a1-4)Gal(b1-4)GlcNAc(b1-3)Gal(b1-4)Glc
# In short: as §1
# [5] = target: GalNAc(b1-3)Gal(a1-6)Gal(b1-4)Glc
# In short: as §1
# GalNAc(b1-3)GalNAc = target: GalNAc(b1-3)GalNAc
# In short: as §1
# GalNAc(b1-3)GlcNAc = target: GalNAc(b1-3)GlcNAc
# In short: as §1
# GalNAc(b1-4)Gal(b1-4)Glc = target: GalNAc(b1-4)Gal(b1-4)Glc
# In short: as §1
# GalNAc(b1-4)GlcNAc = target: GalNAc(b1-4)GlcNAc
# In short: as §1
# [6] = target: GalNAc(b1-4)GlcNAc(b1-2)Man
# In short: as §1
# [7] = target: GalNAc(b1-4)GlcNAc(b1-2)Man(a1-3)[GalNAc(b1-4)GlcNAc(b1-2)Man(a1-6)]Man(b1-4)GlcNAc(b1-4)GlcNAc
# In short: as §1
# [8] = target: GalNAc(b1-4)GlcNAc(b1-3)GalNAc(b1-4)GlcNAc
# In short: as §1
# GalNAc(b1-4)GlcNAc6S = target: GalNAc(b1-4)GlcNAc6S
# In short: as §1
# GalNAc(b1-6)GalNAc = target: GalNAc(b1-6)GalNAc
# In short: as §1
# GalNAc3S(b1-4)GlcNAc = target: GalNAc3S(b1-4)GlcNAc
# In short: as §1
# GalNAc3S(b1-4)GlcNAc3S = target: GalNAc3S(b1-4)GlcNAc3S
# In short: as §1
# [9] = target: GalNAc3S(b1-4)[Fuc(a1-3)]GlcNAc
# In short: as §1
# GalNAc4S6S(b1-4)GlcNAc = target: GalNAc4S6S(b1-4)GlcNAc
# In short: as §1
# GalNAc6S(b1-4)GlcNAc = target: GalNAc6S(b1-4)GlcNAc
# In short: as §1
# Glc(a1-4)Glc = target: Glc(a1-4)Glc
# In short: as §1
# [10] = target: Glc(a1-4)Glc(a1-4)Glc(a1-4)Glc
# In short: as §1
# Glc(a1-6)Glc(a1-6)Glc = target: Glc(a1-6)Glc(a1-6)Glc
# In short: as §1
# [11] = target: Glc(a1-6)Glc(a1-6)Glc(a1-6)Glc
# In short: as §1
# Glc(b1-4)Glc = target: Glc(b1-4)Glc
# In short: as §1
# Glc(b1-6)Glc = target: Glc(b1-6)Glc
# In short: as §1
# GlcA(b1-3)Gal = target: GlcA(b1-3)Gal
# In short: as §1
# GlcA(b1-3)GlcNAc = target: GlcA(b1-3)GlcNAc
# In short: as §1
# GlcA(b1-6)Gal = target: GlcA(b1-6)Gal
# In short: as §1
# [12] = target: GlcA3S(b1-3)Gal(b1-4)GlcNAc(b1-2)Man
# In short: as §1
# [13] = target: GlcA3S(b1-3)Gal(b1-4)GlcNAc(b1-3)Gal(b1-4)Glc
# In short: as §1
# [14] = target: GlcNAc(a1-3)Gal(b1-4)GlcNAc
# In short: as §1
# [15] = target: GlcNAc(a1-4)Gal(b1-3)GlcNAc
# In short: as §1
# [16] = target: GlcNAc(a1-4)Gal(b1-4)GalNAc
# In short: as §1
# [17] = target: GlcNAc(a1-4)Gal(b1-4)GlcNAc
# In short: as §1
# [18] = target: GlcNAc(a1-4)Gal(b1-4)GlcNAc(b1-3)Gal(b1-4)Glc
# In short: as §1
# [19] = target: GlcNAc(a1-4)Gal(b1-4)GlcNAc(b1-3)Gal(b1-4)GlcNAc
# In short: as §1
# [20] = target: GlcNAc(a1-4)Gal(b1-4)GlcNAc(b1-3)Gal(b1-4)GlcNAc(b1-3)Gal(b1-4)GlcNAc
# In short: as §1
# [21] = target: GlcNAc(a1-4)Gal(b1-4)GlcNAc(b1-3)Gal(b1-4)[Fuc(a1-3)]GlcNAc(b1-3)Gal(b1-4)[Fuc(a1-3)]GlcNAc
# In short: as §1
# [22] = target: GlcNAc(a1-6)Gal(b1-4)GlcNAc
# In short: as §1
binder,measurement,setting,value
B1,glycan array binding signal (z-score),Gal6S(b1-4)Glc6S,0.254
same,glycan array binding signal (z-score),Gal6S(b1-4)GlcNAc,-0.273
same,glycan array binding signal (z-score),Gal6S(b1-4)GlcNAc6S,0.049
same,glycan array binding signal (z-score),GalNAc(a1-3)Gal,0.12
same,glycan array binding signal (z-score),GalNAc(a1-3)GalNAc,-0.094
same,glycan array binding signal (z-score),[1],-0.116
same,glycan array binding signal (z-score),[2],-0.054
same,glycan array binding signal (z-score),GalNAc(b1-3)Gal,0.144
same,glycan array binding signal (z-score),[3],-0.291
same,glycan array binding signal (z-score),[4],-0.387
same,glycan array binding signal (z-score),[5],0.033
same,glycan array binding signal (z-score),GalNAc(b1-3)GalNAc,-0.398
same,glycan array binding signal (z-score),GalNAc(b1-3)GlcNAc,0.861
same,glycan array binding signal (z-score),GalNAc(b1-4)Gal(b1-4)Glc,-0.156
same,glycan array binding signal (z-score),GalNAc(b1-4)GlcNAc,-0.207
same,glycan array binding signal (z-score),[6],-0.043
same,glycan array binding signal (z-score),[7],0.242
same,glycan array binding signal (z-score),[8],-0.127
same,glycan array binding signal (z-score),GalNAc(b1-4)GlcNAc6S,-0.219
same,glycan array binding signal (z-score),GalNAc(b1-6)GalNAc,-0.195
same,glycan array binding signal (z-score),GalNAc3S(b1-4)GlcNAc,-0.033
same,glycan array binding signal (z-score),GalNAc3S(b1-4)GlcNAc3S,-0.243
same,glycan array binding signal (z-score),[9],-0.433
same,glycan array binding signal (z-score),GalNAc4S6S(b1-4)GlcNAc,-0.507
same,glycan array binding signal (z-score),GalNAc6S(b1-4)GlcNAc,-0.369
same,glycan array binding signal (z-score),Glc(a1-4)Glc,-0.153
same,glycan array binding signal (z-score),[10],-0.285
same,glycan array binding signal (z-score),Glc(a1-6)Glc(a1-6)Glc,-0.387
same,glycan array binding signal (z-score),[11],-0.182
same,glycan array binding signal (z-score),Glc(b1-4)Glc,1.28
same,glycan array binding signal (z-score),Glc(b1-6)Glc,-0.261
same,glycan array binding signal (z-score),GlcA(b1-3)Gal,-0.348
same,glycan array binding signal (z-score),GlcA(b1-3)GlcNAc,-0.187
same,glycan array binding signal (z-score),GlcA(b1-6)Gal,-0.685
same,glycan array binding signal (z-score),[12],-0.481
same,glycan array binding signal (z-score),[13],-0.603
same,glycan array binding signal (z-score),[14],-0.6
same,glycan array binding signal (z-score),[15],-0.272
same,glycan array binding signal (z-score),[16],0.1
same,glycan array binding signal (z-score),[17],-0.387
same,glycan array binding signal (z-score),[18],-0.353
same,glycan array binding signal (z-score),[19],-0.295
same,glycan array binding signal (z-score),[20],0.019
same,glycan array binding signal (z-score),[21],0.063
same,glycan array binding signal (z-score),[22],-0.456
